Measured values from PMC4196162.
These are yes or no findings as the source states them, for the method shown. In cells and extracts the contact can be indirect. Some binding calls cover weakened binding; strength is not graded here.

T1: BCL9-2 (BCL9L, B-Cell Lymphoma 9-like) (human (endogenous in MCF7 and T47D)) (UniProt Q86UU0)
T1 sequence: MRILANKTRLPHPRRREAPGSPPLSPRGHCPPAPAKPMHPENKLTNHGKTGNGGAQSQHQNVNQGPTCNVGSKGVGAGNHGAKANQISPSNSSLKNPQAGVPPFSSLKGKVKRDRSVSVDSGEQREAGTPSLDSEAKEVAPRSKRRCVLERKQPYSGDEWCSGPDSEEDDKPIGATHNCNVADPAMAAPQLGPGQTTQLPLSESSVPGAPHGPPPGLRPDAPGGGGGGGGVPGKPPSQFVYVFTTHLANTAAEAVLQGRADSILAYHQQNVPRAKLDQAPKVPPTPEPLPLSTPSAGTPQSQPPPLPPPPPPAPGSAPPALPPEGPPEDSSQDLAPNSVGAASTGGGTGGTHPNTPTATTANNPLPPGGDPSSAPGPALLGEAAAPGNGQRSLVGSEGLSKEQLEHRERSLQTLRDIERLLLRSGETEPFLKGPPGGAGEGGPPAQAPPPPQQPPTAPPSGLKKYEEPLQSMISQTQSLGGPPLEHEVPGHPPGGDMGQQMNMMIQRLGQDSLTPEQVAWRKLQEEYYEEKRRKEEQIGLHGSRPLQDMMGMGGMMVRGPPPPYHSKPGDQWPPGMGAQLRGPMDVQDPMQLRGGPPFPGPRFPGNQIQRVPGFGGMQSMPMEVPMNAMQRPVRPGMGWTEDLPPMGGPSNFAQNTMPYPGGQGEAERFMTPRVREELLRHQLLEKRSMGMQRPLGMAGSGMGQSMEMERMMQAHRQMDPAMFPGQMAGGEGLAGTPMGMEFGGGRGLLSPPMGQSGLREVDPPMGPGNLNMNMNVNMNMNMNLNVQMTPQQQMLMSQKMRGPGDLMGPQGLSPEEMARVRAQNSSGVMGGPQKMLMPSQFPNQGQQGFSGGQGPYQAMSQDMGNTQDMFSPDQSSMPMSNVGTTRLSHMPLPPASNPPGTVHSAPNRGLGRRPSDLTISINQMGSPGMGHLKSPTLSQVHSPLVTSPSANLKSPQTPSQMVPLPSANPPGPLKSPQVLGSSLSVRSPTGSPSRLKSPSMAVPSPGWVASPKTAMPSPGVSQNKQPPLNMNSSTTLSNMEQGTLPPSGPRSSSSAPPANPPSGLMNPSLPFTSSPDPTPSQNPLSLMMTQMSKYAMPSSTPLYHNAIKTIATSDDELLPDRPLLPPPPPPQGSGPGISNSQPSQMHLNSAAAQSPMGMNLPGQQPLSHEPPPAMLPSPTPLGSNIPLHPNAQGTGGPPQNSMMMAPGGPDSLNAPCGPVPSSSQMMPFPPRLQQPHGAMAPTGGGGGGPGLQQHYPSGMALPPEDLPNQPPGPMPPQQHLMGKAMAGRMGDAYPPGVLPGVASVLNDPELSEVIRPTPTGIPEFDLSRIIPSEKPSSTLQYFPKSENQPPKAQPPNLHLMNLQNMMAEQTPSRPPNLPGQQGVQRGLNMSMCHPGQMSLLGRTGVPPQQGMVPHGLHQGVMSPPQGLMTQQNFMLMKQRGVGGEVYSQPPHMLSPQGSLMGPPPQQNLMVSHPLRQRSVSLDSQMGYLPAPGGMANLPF

T2: ß-catenin (human (endogenous in MCF7 and T47D)), P35222
T2 chain: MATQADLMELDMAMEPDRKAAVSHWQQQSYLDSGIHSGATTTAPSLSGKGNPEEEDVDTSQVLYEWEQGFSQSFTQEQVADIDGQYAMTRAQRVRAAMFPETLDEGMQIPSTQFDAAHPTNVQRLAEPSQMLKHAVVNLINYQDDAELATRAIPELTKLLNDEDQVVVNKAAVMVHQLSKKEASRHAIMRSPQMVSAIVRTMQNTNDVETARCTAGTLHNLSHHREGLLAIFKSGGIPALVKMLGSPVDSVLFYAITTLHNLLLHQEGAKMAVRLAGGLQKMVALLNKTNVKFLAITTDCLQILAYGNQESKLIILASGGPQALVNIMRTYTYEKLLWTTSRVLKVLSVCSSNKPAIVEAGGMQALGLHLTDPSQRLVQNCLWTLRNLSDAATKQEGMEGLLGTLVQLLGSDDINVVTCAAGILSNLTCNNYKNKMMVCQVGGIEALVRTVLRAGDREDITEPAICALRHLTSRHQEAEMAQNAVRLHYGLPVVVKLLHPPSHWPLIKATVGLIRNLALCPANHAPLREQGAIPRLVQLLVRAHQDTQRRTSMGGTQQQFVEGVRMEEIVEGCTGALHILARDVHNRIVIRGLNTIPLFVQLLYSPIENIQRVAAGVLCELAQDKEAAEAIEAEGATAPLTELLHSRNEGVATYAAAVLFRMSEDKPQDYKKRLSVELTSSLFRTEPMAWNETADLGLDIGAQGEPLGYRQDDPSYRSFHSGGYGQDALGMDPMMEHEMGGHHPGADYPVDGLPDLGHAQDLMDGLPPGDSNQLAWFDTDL


Key:
[1] = target: T1, BCL9-2 (BCL9L, B-Cell Lymphoma 9-like) (human (endogenous in MCF7 and T47D)); assay: co-IP; endogenous proteins, T47D whole cell lysates, Protein A sepharose; Western blot
[2] = target: T1, BCL9-2 (BCL9L, B-Cell Lymphoma 9-like) (human (endogenous in MCF7 and T47D)); assay: co-IP; endogenous proteins, MCF7 whole cell lysates, Protein A sepharose; mouse and rabbit IgG as negative controls; Western blot
[3] = target: T2, ß-catenin (human (endogenous in MCF7 …)); assay: co-IP; endogenous proteins, T47D whole cell lysates, Protein A sepharose; Western blot; conditions: remark: other sources report otherwise
[4] = target: T2, ß-catenin (human (endogenous in MCF7 …)); assay: co-IP; endogenous proteins, MCF7 whole cell lysates, Protein A sepharose; mouse and rabbit IgG as negative controls; Western blot; conditions: remark: other sources report otherwise

binding [1]	binding [2]	binding [3]	binding [4]	Binder
binds	binds	–	–	Pygo2 (protein, UniProt Q9BRQ0 1-406) MAASAPPPPDKLEGGGGPAPPPAPPSTGRKQGKAGLQMKSPEKKRRKSNTQGPAYSHLTEFAPPPTPMVDHLVASNPFEDDFGAPKVGVAAPPFLGSPVPFGGFRVQGGMAGQVPPGYSTGGGGGPQPLRRQPPPFPPNPMGPAFNMPPQGPGYPPPGNMNFPSQPFNQPLGQNFSPPSGQMMPGPVGGFGPMISPTMGQPPRAELGPPSLSQRFAQPGAPFGPSPLQRPGQGLPSLPPNTSPFPGPDPGFPGPGGEDGGKPLNPPASTAFPQEPHSGSPAAAVNGNQPSFPPNSSGRGGGTPDANSLAPPGKAGGGSGPQPPPGLVYPCGACRSEVNDDQDAILCEASCQKWFHRECTGMTESAYGLLTTEASAVWACDLCLKTKEIQSVYIREGMGQLVAANDG
–	–	no binding	no binding	Pygo2, Q9BRQ0 1-406 (protein) MAASAPPPPDKLEGGGGPAPPPAPPSTGRKQGKAGLQMKSPEKKRRKSNTQGPAYSHLTEFAPPPTPMVDHLVASNPFEDDFGAPKVGVAAPPFLGSPVPFGGFRVQGGMAGQVPPGYSTGGGGGPQPLRRQPPPFPPNPMGPAFNMPPQGPGYPPPGNMNFPSQPFNQPLGQNFSPPSGQMMPGPVGGFGPMISPTMGQPPRAELGPPSLSQRFAQPGAPFGPSPLQRPGQGLPSLPPNTSPFPGPDPGFPGPGGEDGGKPLNPPASTAFPQEPHSGSPAAAVNGNQPSFPPNSSGRGGGTPDANSLAPPGKAGGGSGPQPPPGLVYPCGACRSEVNDDQDAILCEASCQKWFHRECTGMTESAYGLLTTEASAVWACDLCLKTKEIQSVYIREGMGQLVAANDG
–	–	no binding	no binding	BCL9-2 (BCL9L, B-Cell Lymphoma 9-like), Q86UU0 1-1499 (protein) MRILANKTRLPHPRRREAPGSPPLSPRGHCPPAPAKPMHPENKLTNHGKTGNGGAQSQHQNVNQGPTCNVGSKGVGAGNHGAKANQISPSNSSLKNPQAGVPPFSSLKGKVKRDRSVSVDSGEQREAGTPSLDSEAKEVAPRSKRRCVLERKQPYSGDEWCSGPDSEEDDKPIGATHNCNVADPAMAAPQLGPGQTTQLPLSESSVPGAPHGPPPGLRPDAPGGGGGGGGVPGKPPSQFVYVFTTHLANTAAEAVLQGRADSILAYHQQNVPRAKLDQAPKVPPTPEPLPLSTPSAGTPQSQPPPLPPPPPPAPGSAPPALPPEGPPEDSSQDLAPNSVGAASTGGGTGGTHPNTPTATTANNPLPPGGDPSSAPGPALLGEAAAPGNGQRSLVGSEGLSKEQLEHRERSLQTLRDIERLLLRSGETEPFLKGPPGGAGEGGPPAQAPPPPQQPPTAPPSGLKKYEEPLQSMISQTQSLGGPPLEHEVPGHPPGGDMGQQMNMMIQRLGQDSLTPEQVAWRKLQEEYYEEKRRKEEQIGLHGSRPLQDMMGMGGMMVRGPPPPYHSKPGDQWPPGMGAQLRGPMDVQDPMQLRGGPPFPGPRFPGNQIQRVPGFGGMQSMPMEVPMNAMQRPVRPGMGWTEDLPPMGGPSNFAQNTMPYPGGQGEAERFMTPRVREELLRHQLLEKRSMGMQRPLGMAGSGMGQSMEMERMMQAHRQMDPAMFPGQMAGGEGLAGTPMGMEFGGGRGLLSPPMGQSGLREVDPPMGPGNLNMNMNVNMNMNMNLNVQMTPQQQMLMSQKMRGPGDLMGPQGLSPEEMARVRAQNSSGVMGGPQKMLMPSQFPNQGQQGFSGGQGPYQAMSQDMGNTQDMFSPDQSSMPMSNVGTTRLSHMPLPPASNPPGTVHSAPNRGLGRRPSDLTISINQMGSPGMGHLKSPTLSQVHSPLVTSPSANLKSPQTPSQMVPLPSANPPGPLKSPQVLGSSLSVRSPTGSPSRLKSPSMAVPSPGWVASPKTAMPSPGVSQNKQPPLNMNSSTTLSNMEQGTLPPSGPRSSSSAPPANPPSGLMNPSLPFTSSPDPTPSQNPLSLMMTQMSKYAMPSSTPLYHNAIKTIATSDDELLPDRPLLPPPPPPQGSGPGISNSQPSQMHLNSAAAQSPMGMNLPGQQPLSHEPPPAMLPSPTPLGSNIPLHPNAQGTGGPPQNSMMMAPGGPDSLNAPCGPVPSSSQMMPFPPRLQQPHGAMAPTGGGGGGPGLQQHYPSGMALPPEDLPNQPPGPMPPQQHLMGKAMAGRMGDAYPPGVLPGVASVLNDPELSEVIRPTPTGIPEFDLSRIIPSEKPSSTLQYFPKSENQPPKAQPPNLHLMNLQNMMAEQTPSRPPNLPGQQGVQRGLNMSMCHPGQMSLLGRTGVPPQQGMVPHGLHQGVMSPPQGLMTQQNFMLMKQRGVGGEVYSQPPHMLSPQGSLMGPPPQQNLMVSHPLRQRSVSLDSQMGYLPAPGGMANLPF
